First the molecules themselves.
B1: GCUUCGC (DNA:RNA)
RNA: GGGAGACCGGAAUUCAGAUUGUCCGCUUCGCUUAAAUCCCGUCGUAGCCACCA
DNA 1: CAATCTGAATTCCGGTCTCCC
DNA 2: TGGTGGCTACGACGGGATT
B2: GAAUUUG (DNA:RNA)
RNA: B1 RNA with C26A, U27A, C29U, G30U, C31G
DNA 1: CAATCTGAATTCCGGTCTCCC
DNA 2: TGGTGGCTACGACGGGATT
B3: GCCGCUU (DNA:RNA)
RNA: B1 RNA with U27C, U28G, G30U, C31U
DNA 1: CAATCTGAATTCCGGTCTCCC
DNA 2: TGGTGGCTACGACGGGATT
B4: CGUGACG (DNA:RNA)
RNA: B1 RNA with G25C, C26G, U28G, C29A, G30C, C31G
DNA 1: CAATCTGAATTCCGGTCTCCC
DNA 2: TGGTGGCTACGACGGGATT
B5: AAGGAUA (DNA:RNA)
RNA: GGGAGACCGGAAUUCAGAUUGUCCAAGGAUAUUAAAUCCCGUCGUAGCCACCA
DNA 1: CAATCTGAATTCCGGTCTCCC
DNA 2: TGGTGGCTACGACGGGATT
B6: GUUUUUA (DNA:RNA)
RNA: B1 RNA with C26U, C29U, G30U, C31A
DNA 1: CAATCTGAATTCCGGTCTCCC
DNA 2: TGGTGGCTACGACGGGATT
B7: GUGAUGC (DNA:RNA)
RNA: B1 RNA with C26U, U27G, U28A, C29U
DNA 1: CAATCTGAATTCCGGTCTCCC
DNA 2: TGGTGGCTACGACGGGATT
B8: AUAGGAG (DNA:RNA)
RNA: B5 RNA with A26U, G27A, A29G, U30A, A31G
DNA 1: CAATCTGAATTCCGGTCTCCC
DNA 2: TGGTGGCTACGACGGGATT
B9: UUGUACC (DNA:RNA)
RNA: B5 RNA with A25U, A26U, G28U, U30C, A31C
DNA 1: CAATCTGAATTCCGGTCTCCC
DNA 2: TGGTGGCTACGACGGGATT
B10: UCAGAUG (DNA:RNA)
RNA: B5 RNA with A25U, A26C, G27A, A31G
DNA 1: CAATCTGAATTCCGGTCTCCC
DNA 2: TGGTGGCTACGACGGGATT
B11: UAGAUCA (DNA:RNA)
RNA: B5 RNA with A25U, G28A, A29U, U30C
DNA 1: CAATCTGAATTCCGGTCTCCC
DNA 2: TGGTGGCTACGACGGGATT
B12: GUAGUCA (DNA:RNA)
RNA: B5 RNA with A25G, A26U, G27A, A29U, U30C
DNA 1: CAATCTGAATTCCGGTCTCCC
DNA 2: TGGTGGCTACGACGGGATT
B13: UGUCCCG (DNA:RNA)
RNA: B1 RNA with G25U, C26G, U28C, G30C, C31G
DNA 1: CAATCTGAATTCCGGTCTCCC
DNA 2: TGGTGGCTACGACGGGATT
B14: GUUUUCU (DNA:RNA)
RNA: B1 RNA with C26U, C29U, G30C, C31U
DNA 1: CAATCTGAATTCCGGTCTCCC
DNA 2: TGGTGGCTACGACGGGATT
B15: CCACUAC (DNA:RNA)
RNA: B1 RNA with G25C, U27A, U28C, C29U, G30A
DNA 1: CAATCTGAATTCCGGTCTCCC
DNA 2: TGGTGGCTACGACGGGATT
B16: UAUGACU (DNA:RNA)
RNA: B5 RNA with A25U, G27U, U30C, A31U
DNA 1: CAATCTGAATTCCGGTCTCCC
DNA 2: TGGTGGCTACGACGGGATT
B17: ACUAUUC (DNA:RNA)
RNA: B1 RNA with G25A, U28A, C29U, G30U
DNA 1: CAATCTGAATTCCGGTCTCCC
DNA 2: TGGTGGCTACGACGGGATT
B18: GACCUUC (DNA:RNA)
RNA: B5 RNA with A25G, G27C, G28C, A29U, A31C
DNA 1: CAATCTGAATTCCGGTCTCCC
DNA 2: TGGTGGCTACGACGGGATT
B19: UAUCGCU (DNA:RNA)
RNA: B5 RNA with A25U, G27U, G28C, A29G, U30C, A31U
DNA 1: CAATCTGAATTCCGGTCTCCC
DNA 2: TGGTGGCTACGACGGGATT
B20: ACUCACA (DNA:RNA)
RNA: B5 RNA with A26C, G27U, G28C, U30C
DNA 1: CAATCTGAATTCCGGTCTCCC
DNA 2: TGGTGGCTACGACGGGATT
B21: GUGGUUA (DNA:RNA)
RNA: B5 RNA with A25G, A26U, A29U
DNA 1: CAATCTGAATTCCGGTCTCCC
DNA 2: TGGTGGCTACGACGGGATT
B22: AAUGUAU (DNA:RNA)
RNA: B5 RNA with G27U, A29U, U30A, A31U
DNA 1: CAATCTGAATTCCGGTCTCCC
DNA 2: TGGTGGCTACGACGGGATT
B23: AUCUACU (DNA:RNA)
RNA: B5 RNA with A26U, G27C, G28U, U30C, A31U
DNA 1: CAATCTGAATTCCGGTCTCCC
DNA 2: TGGTGGCTACGACGGGATT
B24: CAGUUGU (DNA:RNA)
RNA: B5 RNA with A25C, G28U, A29U, U30G, A31U
DNA 1: CAATCTGAATTCCGGTCTCCC
DNA 2: TGGTGGCTACGACGGGATT
B25: CCGUUGU (DNA:RNA)
RNA: B1 RNA with G25C, U27G, C29U, C31U
DNA 1: CAATCTGAATTCCGGTCTCCC
DNA 2: TGGTGGCTACGACGGGATT
B26: AUGCCUU (DNA:RNA)
RNA: B5 RNA with A26U, G28C, A29C, A31U
DNA 1: CAATCTGAATTCCGGTCTCCC
DNA 2: TGGTGGCTACGACGGGATT
B27: GUAUAUC (DNA:RNA)
RNA: B1 RNA with C26U, U27A, C29A, G30U
DNA 1: CAATCTGAATTCCGGTCTCCC
DNA 2: TGGTGGCTACGACGGGATT
B28: UUUCUCA (DNA:RNA)
RNA: B5 RNA with A25U, A26U, G27U, G28C, A29U, U30C
DNA 1: CAATCTGAATTCCGGTCTCCC
DNA 2: TGGTGGCTACGACGGGATT
B29: CUAUGAU (DNA:RNA)
RNA: B1 RNA with G25C, C26U, U27A, C29G, G30A, C31U
DNA 1: CAATCTGAATTCCGGTCTCCC
DNA 2: TGGTGGCTACGACGGGATT
B30: UUAUUAA (DNA:RNA)
RNA: B5 RNA with A25U, A26U, G27A, G28U, A29U, U30A
DNA 1: CAATCTGAATTCCGGTCTCCC
DNA 2: TGGTGGCTACGACGGGATT
B31: CAGCGGU (DNA:RNA)
RNA: B5 RNA with A25C, G28C, A29G, U30G, A31U
DNA 1: CAATCTGAATTCCGGTCTCCC
DNA 2: TGGTGGCTACGACGGGATT

Changes are numbered by the printed parent chain; changes in the protein carry UniProt numbers. The list shows a part of the results.

This test deals with T1, RBFOX1 RRM RbFoxmut (Fox-RRM*) (Homo sapiens, UniProt Q9NWB1 109-208, R118D;E147R;N151S;E152T).
T1 sequence: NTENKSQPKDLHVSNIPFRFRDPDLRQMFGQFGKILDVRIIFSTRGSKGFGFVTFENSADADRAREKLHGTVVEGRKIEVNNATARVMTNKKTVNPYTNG
As to the kind of experiment: EMSA; HiTS-Eq, 1 nM pool, 10 min; buffer printed only for the single-RNA assays: 10 mM Tris pH 7.5, 150 mM NaCl, 3.4 mM EDTA, 0.001% NP-40, 30 C. The conditions noted are these: tags: His6 N-terminal (pET28a); label: 5' 32P. Put shortly: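 Purified RbFox RRM, wild type or mutant, was incubated for 10 min in 50 µL with 1 nM of a 5′-radiolabelled RNA pool carrying 7 randomized nucleotides, whose flanks were annealed to DNA oligonucleotides, over a series of increasing protein concentrations. Unbound RNA was resolved on 8% native PAGE, cut out, reverse-transcribed, barcoded by PCR and sequenced on an Illumina HiSeq 2500. Relative association constants were derived from changes in read counts for each RNA species versus the control reaction and normalised to the cognate motif.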
On the technique in general: A gel shift assay detects complexes by their altered migration in electrophoresis.
Regarding B1, the binding signal is 0.125 KA relative to UGCAUGU.

With B2, the binding signal was 0.0973 KA relative to UGCAUGU.

Regarding B3, the binding signal was 0.0743 KA relative to UGCAUGU.

Take B4: the binding signal was 0.111 KA relative to UGCAUGU.

Regarding B5, the binding signal is 0.0765 KA relative to UGCAUGU.

In the case of B6, the binding signal is 0.0943 KA relative to UGCAUGU.

For the molecule B7, the binding signal is 0.168 KA relative to UGCAUGU.

Take B8: the binding signal was 0.097 KA relative to UGCAUGU.

On to B9, for which the binding signal is 0.134 KA relative to UGCAUGU.

With B10, the binding signal was 0.117 KA relative to UGCAUGU.

B11: the binding signal was 0.0575 KA relative to UGCAUGU.

In the case of B12, the binding signal was 0.148 KA relative to UGCAUGU.

On to B13, for which the binding signal was 0.096 KA relative to UGCAUGU.

As for B14, the binding signal is 0.0724 KA relative to UGCAUGU.

Take B15: the binding signal is 0.0888 KA relative to UGCAUGU.

In the case of B16, the binding signal was 0.0521 KA relative to UGCAUGU.

In the case of B17, the binding signal is 0.0835 KA relative to UGCAUGU.

Regarding B18, the binding signal is 0.0642 KA relative to UGCAUGU.

B19: the binding signal is 0.066 KA relative to UGCAUGU.

Regarding B20, the binding signal was 0.109 KA relative to UGCAUGU.

As for B21, the binding signal was 0.148 KA relative to UGCAUGU.

With B22, the binding signal is 0.137 KA relative to UGCAUGU.

Turning to B23, the binding signal is 0.114 KA relative to UGCAUGU.

On to B24, for which the binding signal is 0.151 KA relative to UGCAUGU.

Turning to B25, the binding signal is 0.132 KA relative to UGCAUGU.

Turning to B26, the binding signal is 0.112 KA relative to UGCAUGU.

B27: the binding signal was 0.114 KA relative to UGCAUGU.

Turning to B28, the binding signal was 0.097 KA relative to UGCAUGU.

Take B29: the binding signal is 0.0688 KA relative to UGCAUGU.

As for B30, the binding signal is 0.0751 KA relative to UGCAUGU.

For B31, the binding signal is 0.125 KA relative to UGCAUGU.

The values are drawn from article PMC9911399, “Two distinct binding modes provide the RNA-binding protein RbFox with extraordinary sequence specificity”.
